# Source: patent US10299477B2 (priority 2015, dated 2019)
# How the values were obtained:
# Assay type in all cases: in vivo
# [1] = tested on: Botrytis cinerea; assay: Test Example B: Gray mold on tomato; conditions: for Test B control value (gray mold on tomato) / Test B (control value class): 250 ppm spray; for Test B control value (gray mold on tomato): preventive, control value class; for Test B (control value class): gray mold on tomato, Botrytis cinerea; for Test B (control value class, gray mold on tomato): in vivo; for Test B control value: Gray mold on tomato
# Source text: [Test Example B] Gray Mold on Tomato
# Seeds of a test plant (tomato variety: Oogata Fukuju) were planted followed by cultivating until three to five first leaves (true leaves) appeared.
# [2] = tested on: Alternaia brassicicola; assay: Test Example C: Alternaria sooty spot on cabbage; conditions: for Test C control value (Alternaria sooty spot on cabbage) / Test C (control value class): 250 ppm spray; for Test C control value (Alternaria sooty spot on cabbage): preventive, control value class; for Test C (control value class) / Test C control value: Alternaria sooty spot on cabbage; for Test C (control value class, Alternaria sooty spot on cabbage): in vivo
# Source text: [Test Example C] Alternaria Sooty Spot on Cabbage
# Seeds of a test plant (cabbage variety: Shikidori) were planted followed by cultivating until the cotyledons extended.
# [3] = tested on: Blumeria graminis f sp. hordei; assay: Test Example D: Powdery mildew on barley; conditions: for Test D control value (powdery mildew on barley) / Test D (control value class): 250 ppm spray; for Test D control value (powdery mildew on barley): preventive, control value class; for Test D (control value class): powdery mildew on barley; for Test D (control value class, powdery mildew on barley): in vivo; for Test D control value: Powdery mildew on barley
# Source text: [Test Example D] Powdery Mildew on Barley
# After the sprayed dilutions were dried, conidia of Blumeria graminis f sp. hordei were inoculated to the plants by shaking off.
# [4] = tested on: Puccinia recondita; assay: Test Example E: Brown rust on wheat; conditions: for Test E control value (brown rust on wheat) / Test E (control value class): 250 ppm spray; for Test E control value (brown rust on wheat): preventive, control value class; for Test E (control value class): brown rust on wheat, Puccinia recondita; for Test E (control value class, brown rust on wheat): in vivo; for Test E control value: Brown rust on wheat
# Source text: [Test Example E] Brown Rust on Wheat
# [5] = tested on: Plasmopara viticola; assay: Test Example G: Downy mildew on vine; conditions: for Test G control value (downy mildew on vine): 250 ppm spray (2.5 ml/pot), preventive, control value class; for Test G control value (downy mildew on vine) / Test G (control value class) / Test G control value: 7-10 days after inoculation; for Test G (control value class): downy mildew on vine, Plasmopara viticola, 250 ppm spray; for Test G (control value class, downy mildew on vine): 250 ppm, sprayed 2.5 ml/pot before inoculation, evaluated 7-10 days after inoculation; for Test G control value: Downy mildew on vine, 250 ppm sprayed before inoculation
# Source text: [Test Example G] Downy Mildew on Vine
# Seeds of a test plant (grape variety: Neomuscat) were planted followed by cultivating until three to four first leaves appeared. […] After the sprayed dilutions were dried, a zoosporangia suspension (1-2×10^4 zoosporangia/ml) of Plasmopara viticola was inoculated to the plants by spraying.
smiles,measurement,setting,value
CCn1c(-c2c(F)cccc2F)c(-c2cccc(Br)c2)ccc1=O [Compound 327],Test B control value (gray mold on tomato),[1],L (L shows 50% or less of control values)
same,Test C control value (Alternaria sooty spot on cabbage),[2],L (L shows 50% or less of control values)
same,Test D control value (powdery mildew on barley),[3],L (L shows 50% or less of control values)
same,Test E control value (brown rust on wheat),[4],H (H shows more than 50% of control values)
same,Test G control value (downy mildew on vine),[5],L (L shows 50% or less of control values)
Cn1c(-c2c(F)cccc2F)c(-c2cc(F)ccc2F)ccc1=O [Compound 483],Test B (control value class),[1],H (H shows more than 50% of control values)
same,Test C (control value class),[2],H (H shows more than 50% of control values)
same,Test D (control value class),[3],H (H shows more than 50% of control values)
same,Test E (control value class),[4],H (H shows more than 50% of control values)
same,Test G (control value class),[5],H (H shows more than 50% of control values)
CCCOc1ccc(Cl)c(-c2ccc(=O)n(C)c2-c2c(F)cccc2F)c1 [Compound 241],Test B control value (gray mold on tomato),[1],H (H shows more than 50% of control values)
same,Test C control value (Alternaria sooty spot on cabbage),[2],H (H shows more than 50% of control values)
same,Test D control value (powdery mildew on barley),[3],H (H shows more than 50% of control values)
same,Test E control value (brown rust on wheat),[4],H (H shows more than 50% of control values)
same,Test G control value (downy mildew on vine),[5],H (H shows more than 50% of control values)
COc1ccc(Cl)c(-c2cc(Cl)c(=O)n(CC(F)(F)F)c2-c2c(F)cccc2F)c1 [Compound 410],Test B (control value class),[1],H (H shows more than 50% of control values)
same,Test C (control value class),[2],H (H shows more than 50% of control values)
same,Test D (control value class),[3],H (H shows more than 50% of control values)
same,Test E (control value class),[4],H (H shows more than 50% of control values)
same,Test G (control value class),[5],L (L shows 50% or less of control values)
CCn1c(-c2c(F)cc(OC)cc2F)c(-c2cccc(F)c2Cl)cc(Br)c1=O [Compound 656],"Test B (control value class, gray mold on tomato)",[1],H (H shows more than 50% of control values)
same,"Test C (control value class, Alternaria sooty spot on cabbage)",[2],H (H shows more than 50% of control values)
same,"Test D (control value class, powdery mildew on barley)",[3],H (H shows more than 50% of control values)
same,"Test E (control value class, brown rust on wheat)",[4],H (H shows more than 50% of control values)
same,"Test G (control value class, downy mildew on vine)",[5],L (L shows 50% or less of control values)
Cn1c(-c2c(F)cc(F)cc2F)c(-c2cccc(F)c2Cl)ccc1=O [Compound 491],Test B (control value class),[1],H (H shows more than 50% of control values)
same,Test C (control value class),[2],H (H shows more than 50% of control values)
same,Test D (control value class),[3],H (H shows more than 50% of control values)
same,Test E (control value class),[4],H (H shows more than 50% of control values)
same,Test G (control value class),[5],L (L shows 50% or less of control values)
Cn1c(-c2c(F)cccc2F)c(-c2cc(OC3CCCC3)ccc2Cl)ccc1=O [Compound 288],Test B control value (gray mold on tomato),[1],H (H shows more than 50% of control values)
same,Test C control value (Alternaria sooty spot on cabbage),[2],L (L shows 50% or less of control values)
same,Test D control value (powdery mildew on barley),[3],L (L shows 50% or less of control values)
same,Test E control value (brown rust on wheat),[4],L (L shows 50% or less of control values)
same,Test G control value (downy mildew on vine),[5],L (L shows 50% or less of control values)
"CCn1c(-c2c(F)cccc2F)c(-c2cc(OC)ccc2Cl)cc(C)c1=O [Compound 329, 5-(2-chloro-5-methoxyphenyl)-6-(2,6-difluorophenyl)-1-ethyl-3-methylpyridine-2(1H)-one]",Test B control value (gray mold on tomato),[1],H (H shows more than 50% of control values)
same,Test C control value (Alternaria sooty spot on cabbage),[2],H (H shows more than 50% of control values)
same,Test D control value (powdery mildew on barley),[3],H (H shows more than 50% of control values)
same,Test E control value (brown rust on wheat),[4],H (H shows more than 50% of control values)
same,Test G control value (downy mildew on vine),[5],H (H shows more than 50% of control values)
COc1cc(F)c(-c2c(-c3cccc(F)c3Cl)cc(C)c(=O)n2C)c(F)c1 [Compound 517],Test B (control value class),[1],H (H shows more than 50% of control values)
same,Test C (control value class),[2],H (H shows more than 50% of control values)
same,Test D (control value class),[3],H (H shows more than 50% of control values)
same,Test E (control value class),[4],H (H shows more than 50% of control values)
same,Test G (control value class),[5],H (H shows more than 50% of control values)
COc1cc(F)c(-c2c(-c3ccc(F)cc3Cl)cc(C)c(=O)n2C)c(F)c1 [Compound 621],"Test B (control value class, gray mold on tomato)",[1],H (H shows more than 50% of control values)
same,"Test C (control value class, Alternaria sooty spot on cabbage)",[2],H (H shows more than 50% of control values)
same,"Test D (control value class, powdery mildew on barley)",[3],H (H shows more than 50% of control values)
same,"Test E (control value class, brown rust on wheat)",[4],H (H shows more than 50% of control values)
same,"Test G (control value class, downy mildew on vine)",[5],L (L shows 50% or less of control values)
Cc1ccccc1-c1cc(Cl)c(=O)n(C)c1-c1c(F)cccc1F [Compound 181],Test B control value,[1],H (H shows more than 50% of control values)
same,Test C control value,[2],H (H shows more than 50% of control values)
same,Test D control value,[3],L (L shows 50% or less of control values)
same,Test E control value,[4],H (H shows more than 50% of control values)
same,Test G control value,[5],L (L shows 50% or less of control values)
CCOc1cc(F)c(-c2c(-c3cc(F)cc(F)c3F)ccc(=O)n2CC)c(F)c1 [Compound 579],"Test B (control value class, gray mold on tomato)",[1],H (H shows more than 50% of control values)
same,"Test C (control value class, Alternaria sooty spot on cabbage)",[2],H (H shows more than 50% of control values)
same,"Test D (control value class, powdery mildew on barley)",[3],H (H shows more than 50% of control values)
same,"Test E (control value class, brown rust on wheat)",[4],H (H shows more than 50% of control values)
same,"Test G (control value class, downy mildew on vine)",[5],H (H shows more than 50% of control values)
CCn1c(-c2c(F)cc(OC)cc2F)c(-c2ccccc2F)cc(Cl)c1=O [Compound 531],Test B (control value class),[1],H (H shows more than 50% of control values)
same,Test C (control value class),[2],H (H shows more than 50% of control values)
same,Test D (control value class),[3],H (H shows more than 50% of control values)
same,Test E (control value class),[4],H (H shows more than 50% of control values)
same,Test G (control value class),[5],L (L shows 50% or less of control values)
Cn1c(-c2c(F)cccc2F)c(-c2cccc(F)c2)cc(Cl)c1=O [Compound 169],Test B control value,[1],H (H shows more than 50% of control values)
same,Test C control value,[2],H (H shows more than 50% of control values)
same,Test D control value,[3],L (L shows 50% or less of control values)
same,Test E control value,[4],H (H shows more than 50% of control values)
same,Test G control value,[5],L (L shows 50% or less of control values)
CCn1c(-c2c(F)cc(F)cc2F)c(-c2ccc(OC)cc2Cl)cc(Br)c1=O [Compound 747],"Test B (control value class, gray mold on tomato)",[1],H (H shows more than 50% of control values)
same,"Test C (control value class, Alternaria sooty spot on cabbage)",[2],H (H shows more than 50% of control values)
same,"Test D (control value class, powdery mildew on barley)",[3],H (H shows more than 50% of control values)
same,"Test E (control value class, brown rust on wheat)",[4],H (H shows more than 50% of control values)
same,"Test G (control value class, downy mildew on vine)",[5],L (L shows 50% or less of control values)
